Results reported in the supplement of paper PMC10338343.
± gives the standard deviation. The list shows a part of the results, in another mix than the full data.

tested on: MIWI (PIWIL1) piRISC loaded with L1MC piRNA (30 nt); test: pre-steady-state target cleavage rate (min^-1); MIWI and MILI are mouse PIWI proteins and EfPiwi is from a freshwater sponge; tags in brackets are library labels; higher = faster piRNA-guided slicing of the target; conditions: guide: L1MC piRNA 5'p-UAACUAAAUACUAUGCAAGCUGUAGGUCCU; auxiliary factor: 500 nM mouse GTSF1
Method in brief: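 With or without 500 nM GTSF1 partner protein, 1 nM active affinity-purified piRISC carrying one synthetic guide was mixed with 0.1 nM transcribed, DNA-blocked target RNA library in HEPES–potassium acetate buffer at 33 °C for 0–8 or 0–960 min. Uncleaved targets were sequenced and normalised to depth and to weakly complementary targets, three trials were pooled, and k3 was capped at 0.0001 min^-1. The pre-steady-state cleavage rate came from a burst-and-steady-state fit.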

Sequence | pre-steady-state target cleavage rate
UCCUGGAUGUGCUAGCAUAGUAUUUAGUAA | 0.033 ± 0.0071
UCCUGCUACAGCUUGCAUAGUAUAAAGUAA | 0.187 ± 0.025
UCCUGGAUCAGGUUGCAUAGUAUUUACUUA | 0.162 ± 0.028
UCCUGGAAGAGCUUGCUUAGUAUUUAGUUA | 0.761 ± 0.051
UCCACCUACAGCUUGCAUUGUAUUAAGUUA | 0.363 ± 0.026
UCCUGGAUGUGUUGCAUAGUAUUUAGUUA | 0.108 ± 0.019
UCCUGGAUGUGCUUGCAUAGUAUGUUAGUUA | 0.0837 ± 0.011
UCCACCUACAGCUAGCAAAGUAUUUAGUUA | 0.839 ± 0.027
UCCUGGAUGUGCUUGCUUAGUAUUUAGUAA | 0.0383 ± 0.008
UCCUGGAUGUGCUCGCAUAGUAUUUAGUUA | 0.3 ± 0.029
UCCUGGAACAGCUUGCAUAGUAGUUUAGUUA | 0.283 ± 0.018
UCCUGGUACAGCUUGCAUAGUAUAUUAGUUA | 0.709 ± 0.09
UCCUCCUACAGCUUGCUUACUAUUUAGUUA | 0.531 ± 0.025
UCCUGCUACAGCUAGCAUAGUUUUUAGUUA | 0.362 ± 0.031
AGGACCUACUGCUUGCAUAGUAUUUUGUUA | 0.913 ± 0.063
UCCACCUACAGCUUGCAUAGUAUAUACUUA | 0.211 ± 0.039
UCGACCUACAGCUUGGAUAGUUUUUAGUUA | 0.384 ± 0.021
UCCUGGAUCAGCAUGCAUAGUAUUUUGUUA | 0.517 ± 0.03
UCCUGGAUGUCCUUGCAUAGUAUUUAGUUG [g2:g19:cont:t1G] | 0.0673 ± 0.0083
AGCUCCUACAGCUUGCAUAGUAUUUAGUUA | 1.37 ± 0.053

Sequence | pre-steady-state target cleavage rate
UCGACCUACUGCUUGCAUAGAAUUUAGUUA | 0.394 ± 0.024
UCGACCUACAGCUUGCAUAGUAAUUUGUUA | 0.528 ± 0.035
UGGUCCUACAGCUUGCAUAGUAUUUUGUUA | 0.679 ± 0.03
UGGACCUACAGCUUGCAUAGUUAAUAGUUA | 0.0804 ± 0.0098
UGGACCUACAGCUUGCAUAGUAAUAAGUUA | 0.367 ± 0.047
UCCUCCUACAGCUUGCAUAGUAUUUGAGUUA | 0.48 ± 0.033
UCCUCCUACAGCUUGCAUUGUAUUUAGAAA | 0.181 ± 0.027
UGGACCUAGUGCUUGCAUAGUAUUUAGUUA | 0.979 ± 0.061
AGGACCUUCAGCUUGCAUAGUAUUUAGUAA | 1.07 ± 0.079
AGGACCUACAGCUUGCAUAGUAUGUUAGUUA | 0.601 ± 0.067
UCCACCUACACCUUGCAUAGUAAUUAGUUA | 0.704 ± 0.076
UGGUGGUACAGCUUGCAUAGUAUUUACAAA | 0.0681 ± 0.014
UCCUGGAUCAGCUUGCAUAGUAUUAUGUUA | 0.28 ± 0.032
UCCUGCUACAGCUUCCAAAGUAUUUAGUUA | 0.35 ± 0.033
UCCACCUACAGCUGGCAUAGUAUUUAGUUA | 1.05 ± 0.039
UCCUGGAUCUGCUUGGAUAGUAUUUAGUUA | 0.533 ± 0.033
UCCACCUACAGCUUGCAAUGUAUUUAGUUA | 0.552 ± 0.034
UCCUCCUACAGCUUGCUUAGAAUUUAGUUA | 0.274 ± 0.035
UCCUGGUAAGCUUGCAUAGUAUUUAGUUA | 0.979 ± 0.043
UCCUGGAUCAGCUUGCAUAGAAUUUAGUUA | 0.258 ± 0.028

same assay, conditions: guide: L1MC piRNA 5'p-UAACUAAAUACUAUGCAAGCUGUAGGUCCU; auxiliary factor: none (no GTSF1)

Sequence | pre-steady-state target cleavage rate
UCCUGGAUGUGCUAGCAUAGUAUUUAGUAA | 0.0042 ± 0.0028
UCCUGCUACAGCUUGCAUAGUAUAAAGUAA | 0.00455 ± 0.0018
UCCUGGAUCAGGUUGCAUAGUAUUUACUUA | 0.00557 ± 0.0024
UCCUGGAAGAGCUUGCUUAGUAUUUAGUUA | 0.0227 ± 0.0089
UCCACCUACAGCUUGCAUUGUAUUAAGUUA | 0.0078 ± 0.002
UCCUGGAUGUGUUGCAUAGUAUUUAGUUA | 0.00732 ± 0.0033
UCCUGGAUGUGCUUGCAUAGUAUGUUAGUUA | 0.0113 ± 0.0038
UCCACCUACAGCUAGCAAAGUAUUUAGUUA | 0.00645 ± 0.0023
UCCUGGAUGUGCUUGCUUAGUAUUUAGUAA | 0.0104 ± 0.0033
UCCUGGAUGUGCUCGCAUAGUAUUUAGUUA | 0.0185 ± 0.0045
UCCUGGAACAGCUUGCAUAGUAGUUUAGUUA | 0.00882 ± 0.0034
UCCUGGUACAGCUUGCAUAGUAUAUUAGUUA | 0.0104 ± 0.0047
UCCUCCUACAGCUUGCUUACUAUUUAGUUA | 0.0111 ± 0.0027
UCCUGCUACAGCUAGCAUAGUUUUUAGUUA | 0.0132 ± 0.0034
AGGACCUACUGCUUGCAUAGUAUUUUGUUA | 0.0554 ± 0.009
UCCACCUACAGCUUGCAUAGUAUAUACUUA | 0.00558 ± 0.0027
UCGACCUACAGCUUGGAUAGUUUUUAGUUA | 0.0246 ± 0.0064
UCCUGGAUCAGCAUGCAUAGUAUUUUGUUA | 0.00866 ± 0.003
UCCUGGAUGUCCUUGCAUAGUAUUUAGUUG [g2:g19:cont:t1G] | 0.00819 ± 0.0027
AGCUCCUACAGCUUGCAUAGUAUUUAGUUA | 0.0847 ± 0.013

Sequence | pre-steady-state target cleavage rate
UCGACCUACUGCUUGCAUAGAAUUUAGUUA | 0.0169 ± 0.0049
UCGACCUACAGCUUGCAUAGUAAUUUGUUA | 0.0166 ± 0.0049
UGGUCCUACAGCUUGCAUAGUAUUUUGUUA | 0.0592 ± 0.011
UGGACCUACAGCUUGCAUAGUUAAUAGUUA | 0.00614 ± 0.0024
UGGACCUACAGCUUGCAUAGUAAUAAGUUA | 0.00394 ± 0.0024
UCCUCCUACAGCUUGCAUAGUAUUUGAGUUA | 0.0177 ± 0.0041
UCCUCCUACAGCUUGCAUUGUAUUUAGAAA | 0.00243 ± 0.0023
UGGACCUAGUGCUUGCAUAGUAUUUAGUUA | 0.0419 ± 0.0095
AGGACCUUCAGCUUGCAUAGUAUUUAGUAA | 0.0632 ± 0.012
AGGACCUACAGCUUGCAUAGUAUGUUAGUUA | 0.0392 ± 0.0089
UCCACCUACACCUUGCAUAGUAAUUAGUUA | 0.0161 ± 0.0032
UGGUGGUACAGCUUGCAUAGUAUUUACAAA | 0.00234 ± 0.0023
UCCUGGAUCAGCUUGCAUAGUAUUAUGUUA | 0.00874 ± 0.0027
UCCUGCUACAGCUUCCAAAGUAUUUAGUUA | 0.00272 ± 0.0024
UCCACCUACAGCUGGCAUAGUAUUUAGUUA | 0.0213 ± 0.0035
UCCUGGAUCUGCUUGGAUAGUAUUUAGUUA | 0.0259 ± 0.0063
UCCACCUACAGCUUGCAAUGUAUUUAGUUA | 0.00492 ± 0.0019
UCCUCCUACAGCUUGCUUAGAAUUUAGUUA | 0.00553 ± 0.0023
UCCUGGUAAGCUUGCAUAGUAUUUAGUUA | 0.0615 ± 0.014
UCCUGGAUCAGCUUGCAUAGAAUUUAGUUA | 0.0291 ± 0.0088
